Reference: the supplement of paper PMC10126150
Values marked as one replicate rest on one cluster of the flow cell; about a third of the high ones do not repeat.

Test system: ATP
Test: switch fluorescence ratio, 500 uM ATP over buffer (Cy3 cluster intensity, sum of 5 cycles each) (fold (ratio)); higher = stronger signal-on switching upon ATP binding; sequences stand for … in TCGTCGGCAGCGTCAGATGTGTATAAGAGACAGTTTTTTTTTTTTTTTTTTTTTTTTT…TC
Details: aptamer strand: ATP DNA aptamer (quencher-CACCTGGGGGAGTATTGCGGAGGAAGG + anchor), 100 nM annealed; ATP concentration: 500 uM; one replicate
Summary of the method: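 Exposure to 500 uM ATP lasted 15 min at 22 °C before imaging, and a selection-buffer image was taken beforehand, for Cy3-labelled switching-strand clusters on a modified Illumina MiSeq flow-cell annealed to 100 nM quencher-labelled ATP aptamer. Five buffer/ATP cycles were run with NaOH stripping and re-annealing between them. The fluorescence ratio per cluster is summed target-cycle over summed buffer-cycle Cy3 intensity, averaged per switch-domain sequence. Clusters outside 100-1000 RFU were excluded.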

Row | Sequence | switch fluorescence ratio
1 | TATATCTATG | 1.05
2 | TGGTTTCTGT | 1.01
3 | GCAATTGGGC | 1.15
4 | TGATGCGT | 0.999
5 | CGCGGAGCAA | 6
6 | AAATACGATG | 1.03
7 | CACTGAATTT | 0.988
8 | GTTAATAGCG | 0.987
9 | TGCAGCCGGT | 1.09
10 | TTCTCATAAA | 1.01
11 | AATTTTGTAT | 1.01
12 | CATTATCACA | 1.03
13 | GAAAAGTCTT | 1
14 | ACGTGATTGT | 1.03
15 | ACCCAGGGTC | 1.3
16 | GGTGGGCGTT | 0.993
17 | GCTGCTTTTG | 1.06
18 | TAAGGCCATG | 0.978
19 | GGTCTGAGTA | 0.971
20 | GGATCTCGTG | 0.982
21 | GTCCATCGTT | 0.997
22 | GGTTCCTACG | 1.9
23 | CGCGCTCCGA | 1.39
24 | CCGTAGGGCC | 1.08
25 | CGCTACGTAC | 2.03
26 | ACGGATGTTA | 1.07

Row | Sequence | switch fluorescence ratio
27 | ATGTTTACCA | 0.993
28 | GGGTTGCATA | 0.988
29 | GGGATTAAT | 0.982
30 | TAGGAAGTTT | 0.991
31 | CCTCAATGTA | 1.81
32 | ACTCCTGGCG | 1.03
33 | TGGGCACTTG | 1.04
34 | GGGGATCGTG | 0.994
35 | AGTACCGGT | 0.98
36 | AAGGAGTATG | 0.957
37 | TCTTTCATCG | 1.08
38 | CTAGGGCCGT | 1.04
39 | CACCTCAGTG | 1.12
40 | ATCCGTTTGG | 0.972
41 | AGTCTGTTTG | 0.964
42 | CCAGACGCCA | 2.16
43 | TAGTGCAGGT | 1.01
44 | TTTAAACGCG | 0.964
45 | AATCGGCAGG | 0.993
46 | TGCGAGTACA | 0.984
47 | AGAATTTATG | 0.99
48 | TTTAGGAAAT | 1.07
49 | TGCAATAACG | 1.77
50 | GTCCCAAAAA | 1.07
51 | AAATGGAAAT | 0.965
52 | CTGTCGCTTG | 0.994

Row | Sequence | switch fluorescence ratio
53 | CAAAAGACCG | 1.02
54 | TGTGGTCGGC | 1.05
55 | GCCCCTGGAT | 1.04
56 | AGCGATGTAG | 0.987
57 | TCGCTTTGTT | 0.978
58 | GGAATATTCA | 0.968
59 | TGGTTGCCCC | 1.11
60 | ATAGCGAAGC | 0.969
61 | GCTTAATGCT | 1
62 | ATCAGCTGTT | 0.994
63 | GGGGCATGTT | 1.01
64 | CGGTTACTTA | 1.01
65 | CTCTTTCATC | 1
66 | CGGAGGGACA | 1.01
67 | TGAAGAAGC | 1.07
68 | GCGGTATTTG | 0.997
69 | CTGTTGTGAG | 0.983
70 | ACGGTATACT | 1.37
71 | TTTTATCCC | 0.954
72 | CCGGGTTATG | 1.01
73 | AAATCTACTA | 1.03
74 | AGGTATTCGC | 0.992
75 | AAGTTTAC | 1.03
76 | AAACTGTGCG | 1.02
77 | GAAGGGGT | 0.997
78 | GTGGGAAGAT | 0.96

Row | Sequence | switch fluorescence ratio
79 | CAATCTTGCA | 1.01
80 | AACACATCGT | 1.02
81 | CTTACTGTA | 1.15
82 | TAGCCCGGTT | 1.02
83 | ATCGGAAATC | 1.06
84 | TAGGTCGTCG | 1
85 | GAGAGGCCGG | 0.992
86 | TTCACTGAGG | 1.04
87 | TTTTTCGAGT | 0.919
88 | CAGGGTCACG | 0.987
89 | GGTTGTTCGG | 0.991
90 | CATTAACAAT | 0.978
91 | TTATTTCGCA | 1.02
92 | GGGGAGTGTG | 1
93 | TGGTATCCTG | 1.02
94 | GTCGCAACGA | 1.04
95 | GACCAGCGAG | 1
96 | ATTAAACTTT | 0.955
97 | GAGAACTTAA | 1.08
98 | CATCTTTGGA | 1.01
99 | TTTCAGATTT | 1
100 | CCTTGAAATG | 1.06
101 | ACATGCGGGT | 1.06
102 | AATTGGGTGG | 0.995
103 | CTTGTACGA | 1.02
104 | GAGTCGCTGA | 0.976

Row | Sequence | switch fluorescence ratio
105 | CGCCACGCCG | 0.947
106 | TCTGCAGCC | 1.95
107 | CGCTGTATGC | 1.13
108 | CCGGCGCGCG | 1.01
109 | AAGGAGCCGC | 1.02
110 | CCAATTGTTA | 0.988
111 | CGGCGGTTGG | 0.982
112 | TTGAGATTCT | 1.04
113 | CTCAGTTTCC | 1.04
114 | AGAGATAAC | 1.03
115 | TTGGGGAATC | 0.933
116 | CGTTAGTTTC | 0.953
117 | GGCTCGGACA | 1
118 | CGCCAATGC | 1.6
119 | CGGCGGACTA | 0.993
120 | TATTCAGAGA | 1.02
121 | CGGTCTGCGG | 0.956
122 | ATAAGGGGGG | 0.996
123 | AGGTTCGCCT | 0.976
124 | ATCGGGACAA | 1.03
125 | TCGAAATAGT | 1.07
126 | CCAAGGCGGC | 1.07
127 | ATAACTTAAT | 1.01
128 | ATTAGGCACA | 1.14
129 | TTTTCATATA | 1.02
130 | GAACTACGT | 0.981

Row | Sequence | switch fluorescence ratio
131 | TCAAAGGCGG | 0.976
132 | TTAAGAGTGT | 0.963
133 | AGGCAGTAAT | 1
134 | TGTCCTACTG | 1.21
135 | CAGGGCGAAA | 0.965
136 | TTGTTAAAGG | 1.03
137 | TCACTATTAT | 0.973
138 | CCCTTGTGCT | 1.01
139 | GATCTTTCCC | 0.995
140 | ATTGCGCCTC | 1.04
141 | AAGTTCAAT | 1.02
142 | TTCGTTAACG | 0.97
143 | TTACACGTTT | 1.34
144 | GGTCACGAGA | 1.02
145 | GGTGATTGGA | 0.972
146 | AAGAAGAATC | 0.984
147 | CCAGGCAAAG | 1.13
148 | ATTTTAGAGG | 0.997
149 | GCAAATGATA | 0.946
150 | TATTCCGAGA | 1.05
151 | ATTATTTCG | 1.04
152 | GTAAAAGCAA | 1.2
153 | AAATATGTCA | 0.94
154 | GCCCTAGTTA | 0.975
155 | ACAGTATACA | 1.18
156 | CAACACCGTA | 1.01

Row | Sequence | switch fluorescence ratio
157 | CTAATTATGC | 1.06
158 | AAGGAAGC | 1
159 | CAAAGCGAAG | 1.01
160 | CGGCGCTCGC | 1.07
161 | ACATGGCTGC | 0.988
162 | TAGGAGGCA | 1.02
163 | GCGCATCTGC | 1.09
164 | ATTCTCAGCG | 1.01
165 | ATATCGGAGC | 0.961
166 | TTTACCGGGC | 1.07
167 | CTGAGGAGAT | 1.03
168 | TGACTTCGGT | 0.985
169 | CAATATACCC | 1.13
170 | CGTAATGCTA | 1.3
171 | CGTGTTGAAC | 1.01
172 | CATCGGGAGC | 1.03
173 | TAGGAGATGC | 0.98
174 | GAGGCATGAT | 0.993
175 | TTTAATCGCG | 0.934
176 | TCGTCACTTC | 1.06
177 | CAAGAGTCTT | 0.979
178 | TTACTCAGGC | 0.998
179 | GCCTGAGTCA | 1.09
180 | GACGGGTCCT | 1.01
181 | GGATAAGCAC | 1.26
182 | GTGGTTTTCC | 0.985

Row | Sequence | switch fluorescence ratio
183 | AAACGTGTAC | 1.16
184 | GAGTTTAAAG | 0.955
185 | GATGAAAATT | 1.34
186 | CACTTGAATA | 0.956
187 | GAAGGGAGCC | 0.979
188 | ACGGGGGTAC | 1.03
189 | TTTAGGCTAT | 1.03
190 | GTCGGGCCCT | 1.02
191 | AAAGTGGTCC | 1.05
192 | AGGTTGCAAG | 1.02
193 | GAAATATTGA | 1.05
194 | CGATTGAGTA | 0.927
195 | CGGATTCTCC | 1.29
196 | GATTCATTGG | 1.01
197 | CAGGAGAGGA | 1.01
198 | AGCGGGACTG | 1.01
199 | GATCTAGAGT | 0.982
200 | CGTTACACAT | 1.05
201 | CTCAGCATGT | 1.74
